Over roughly 33,000 sequences, “E-score (-0.5 to 0.5)” has its median near -0.016; the highest 2% begin near 0.31. The list shows a part of the results.
target: Cst6 (UniProt P40535); assay: PBM E-score (8-mer binding enrichment) (E-score (-0.5 to 0.5)); higher = stronger / more preferred TF binding; most listed sequences are background and not binding sites; details: protein concentration: 200 nM; construct: GST-DNA-binding domain
Summary of the method: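 GST-tagged yeast TFs (full-length or DNA-binding domain) were made by PURExpress in vitro transcription/translation and applied at about 100-200 nM to universal all-10-mer Agilent arrays. The arrays were made double-stranded by primer extension, on fresh or once-stripped slides. Bound protein was detected with fluorescent anti-GST, and scans were normalised with masliner. Each ungapped eight-base word, pooled with its reverse complement, received an E-score (modified Wilcoxon-Mann-Whitney statistic) from the Universal PBM Analysis Suite.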

Sequence	PBM E-score
GGGAGGGA	-0.237
GCTCTCCC	-0.25
AAAATATT	0.233
AGTGGACC	-0.346
AATGGGGC	-0.0991
ATGTCCGA	-0.158
CGATTTAA	0.0976
CATTAAAC	0.116
CAGGGATG	-0.138
CTGTAACC	0.176
ACATACCC	0.159
GCAAAGGA	0.115
ATCAACTA	0.237
ATATTCCC	0.0685
GAATTGCC	-0.00514
AAAGCAGA	0.066
GACCAACC	-0.139
CAAGAGGA	-0.0221
CGCCAGCG	-0.218
TTGTGAAA	0.115
ACATGATC	0.206
AAGGTTTA	0.0326
ACGGAAGC	-0.00178
CACCCTGC	-0.0774
GCATTCCC	-0.161

Sequence	PBM E-score
TACCTCAA	0.0355
AAGGGTCA	-0.103
ATCTTCTA	0.0735
CGGGCGAA	-0.207
GGGCGAAC	0.0255
GTCGGTTA	-0.0355
ACCGTCGT	-0.0178
CATCTTCC	0.195
ACATTGGC	-0.0931
CACCGGAC	-0.175
CTGGGCTA	-0.283
CTATTTCA	0.227
CGCCAGGA	-0.124
AGCGACGG	0.00159
ACGAGCAG	-0.0773
AAATCATA	0.275
AAGCGAAC	0.0033
CGCGCTCA	0.0199
ATACGACC	-0.103
GACGGGAC	-0.242
GAATCCAA	-0.0631
AAGGAAAC	-0.00681
ACCCAGTG	-0.0761
ACACACTA	0.0411
AATGCATT	0.0825

Sequence	PBM E-score
ATCCAACG	-0.0807
AACCATGA	0.224
CAGGTTAC	-0.146
CGGAGAGA	-0.204
CAGGATGG	-0.213
AGGCGAAA	-0.0196
TAGCGATA	0.0862
CTCTCACC	-0.0952
ACAGCCCT	-0.167
CGACATCG	-0.122
GTTATCTA	-0.0154
GACCAGCA	-0.152
AACACCGT	-0.137
TCCTTGAA	-0.0366
AGGGTTCG	-0.332
TATTGACA	0.0874
ACGGATAT	0.292
CCAGGTCC	-0.36
CTGCGGAA	-0.171
AGCGCGAA	0.136
GATATTCA	-0.0707
AATTAGCT	0.0936
GCCCCCCC	-0.331
CCAAATAC	0.0357
ACAACACT	0.0552

Sequence	PBM E-score
ACGCCGTA	0.349
GGATGTTA	-0.0489
CTCGGAAA	-0.128
CTTGCAGA	-0.138
CTATAATA	0.0135
AGGGGTAT	-0.287
CAAGCATA	0.0503
GTCGCGGA	-0.198
AACATAGC	-0.148
GCATAGGC	-0.0795
CACATCCA	0.0192
CGATAGCG	-0.0736
CCAGCGGA	-0.342
ACTAAATA	0.198
ACGCATGC	0.12
CCCTCTTA	-0.014
AAGGCTTG	-0.0146
CAACGTAC	0.0567
CATAACCC	-0.12
CTTGCAAA	0.0673
GAATTGTA	0.0848
AGAAACAA	0.295
CAGATGCA	-0.269
AACCACGA	0.0283
GCTTCGGA	-0.15

Sequence	PBM E-score
GATTATGA	0.278
CAAGTTCA	0.108
CCGTTCGA	0.197
CGCGGCTC	0.28
CTGCAGAA	0.159
ATACAGAA	0.216
CATGGCGG	-0.023
CCGTGGCG	0.101
CCTTAAAG	-0.0897
AGCTGGTG	-0.169
CATTTAGG	-0.191
ACCACGGG	-0.163
AATTTTAC	0.326
GTGTTATA	0.16
CCAAAAAG	0.0341
GTTGGGTA	-0.165
GGAGGCTA	-0.258
CCCAAGGC	-0.0244
ATAATCGC	0.155
ACATTAAG	0.128
CCCGCCGA	-0.226
ACCGGTTA	0.0584
ACATCGCG	-0.0687
TAAGTTAA	0.187
GATTGTGC	0.0525

Sequence	PBM E-score
CCTGCCGC	-0.156
TCGGTAAA	0.0207
ACCAGCTC	-0.12
CGTCAACG	0.344
ATGCCCGG	-0.307
AAAATCCT	0.0302
CCTGGATA	-0.211
CCGCCGCG	0.2
ATCCTTTG	0.0497
ACCTTTTA	-0.0433
GATCGGCC	-0.106
GTATGCAC	0.12
CACTTTTC	0.0833
AACACTCA	0.16
AGGAGCCA	-0.278
TGGTGGAA	-0.125
ACAGGCCG	-0.126
GAGTACTC	-0.205
GCAGTGTA	0.112
AGTCTCCG	-0.0256
GCTGCCAC	-0.126
AAGGACAT	-0.0531
GAAAAATA	0.27
ACTGACGA	0.201
AGATACTC	0.0184

Sequence	PBM E-score
GAAAGCGC	-0.00012
GAACCTTC	-0.115
ACCAAAGT	-0.0487
AACCAGTG	-0.241
CGAAGCAG	-0.0586
TTCCTCAA	0.0662
ACAGCTGG	-0.134
GTAAAAGA	0.118
CGTGTACA	0.188
CACTTTAA	0.166
AGATTCGC	0.0745
ATACCACG	0.128
ATGGCGTG	0.113
CCTAGACG	-0.155
CTAATTTA	0.321
CACTGCAG	-0.0683
CGCAAGTA	0.0408
AACCGAAC	-0.00922
CCGCTCGA	-0.0821
CCTGTCTA	-0.164
CGGTGAGC	-0.227
ATAGTGTC	-0.00632
CAACTCCC	-0.0475
CGCTTCGC	-0.0922
AAGTTCAC	-0.0134

Sequence	PBM E-score
AGTTCACG	-0.0175
CCTGGCGC	-0.0314
CCGACAAA	0.111
CCGAGAAG	-0.187
AACCCAAT	-0.017
CAACCCAC	0.0355
CCCTGTAC	-0.296
ATTCACGG	0.197
GTTAAGAA	-0.0587
AGCTAGTG	-0.0105
CCTCGTGA	0.106
AATGGACA	0.139
GCGGAGAA	-0.0169
TGTTATAA	0.251
GTAAGCCA	-0.124
CATCATGC	0.362
AAGCGGAA	0.0463
GACGCAAC	0.173
AAGTCCAT	-0.23
ACAAGGTC	-0.0157
ATCCATCC	0.0553
ATTTCTTG	0.231
ATATTCTC	0.275
CATATGAC	0.366
GAGTTACA	0.115

Sequence	PBM E-score
CATTATGC	0.146
CCCATATA	-0.0342
GGGACACA	-0.153
AGTGAAAC	0.0321
CCCATCCG	-0.109
TCTGAAAA	0.0835
CATATAAA	0.236
GAGCCACC	-0.265
ATGCAAAA	0.22
CATCACCG	0.305
CGGATCTC	-0.106
CCTCGAAC	-0.209
CTCTCGGA	-0.0484
GCACTTCA	0.138
CGTATAAG	0.132
ATCTGACG	0.221
ACGACAGC	0.123
AATAGATT	0.152
CGATTAAG	0.146
CACCCTAG	0.0039
ATAATGTG	0.119
ATCGCATG	0.0749
AAGATACT	0.0395
AATGTGGC	-0.0637
ACCCTCAG	-0.198

Sequence	PBM E-score
GCGAGCGA	-0.0462
GTGTTCCA	-0.202
CCAAGTTC	-0.182
CGGCCCTA	-0.122
GCACCAGC	-0.176
GTAAACTA	0.203
GCCGCTCA	0.0823
ACGGGAGG	-0.251
CAACGAAA	0.221
GTTAATCA	0.282
ATTAGGAC	-0.166
TCTTACAA	0.065
AGTTGCGG	0.0879
ACGCCCTA	-0.121
AGCCGTGA	0.198
ACAGTTAA	0.0795
ATCCAGAC	-0.0848
GCACCAAA	0.0915
CTTAGTAC	0.0188
AGAGGTGA	0.18
AGTTAATC	0.0892
AGTCAACG	-0.102
ATGGAACG	-0.106
GAAAACAC	0.0904
CGTACCGC	0.0844

Sequence	PBM E-score
ACACGGGA	-0.0656
AACCGACA	0.037
CAATTTGG	-0.0563
GCTTGTCA	0.0869
CTCCCACA	-0.289
CACGTATG	0.204
CGGAATCA	0.128
GGCCTTCA	-0.116
AAATGGAG	0.0979
ACCACCCT	-0.223
ATCGGCAC	0.109
CTATGGGC	-0.186
CCCCGCGC	-0.148
GCCCGGGA	-0.25
AACACTTC	0.154
ACCGGACA	-0.303
CGGCTAGA	-0.038
CAAAGCCC	-0.188
AGGAGTTG	-0.0273
ACGTGGAC	0.0951
AAGCATAT	0.182
AACCTTCA	-0.0423
ATAAATTC	0.145
AACAAGGT	0.0571
AAGTCTAC	-0.2

Sequence	PBM E-score
CCGCACTC	0.0452
CGCATATC	0.0984
CAGGCTAC	-0.249
CTGGTCAC	-0.123
GCCCCAGA	-0.275
CCACACCC	-0.16
CATGATCG	0.0636
TACTCCCA	-0.0234
CATAACTC	-0.118
CAGGCAAC	-0.0835
AGCCTACC	-0.25
CGTGTCGA	0.137
GCAATAAA	0.243
AATATACG	-0.0439
AAATCCTC	-0.122
ATAACTCC	-0.175
TCGTTGAA	0.237
AAGGTACA	-0.0996
AAAAGTCA	0.125
CGCTAAAG	0.0348
ACTTGTGC	-0.176
CAAAGAGA	-0.111
AGATATGC	0.0319
AAGCGTCC	-0.0893
CAGCAGAG	-0.311

Sequence	PBM E-score
GCTGGCCC	-0.314
CTTTACAC	0.16
GCGCTGAC	0.176
CTGCACCC	-0.306
ATGACGGC	0.365
CGAGGAAA	-0.0408
CTATTTTC	0.0777
ATGGTCAA	0.183
CGCAGACA	0.0456
CATAGTGA	0.0205
CATCCCAG	-0.174
ATATTCCA	0.18
CATATACA	0.181
CTAGGTAC	-0.114
GGATGCCC	-0.274
ACCGAGCT	-0.126
GTACAGCA	-0.098
ATACACAT	0.166
ACAGATAC	0.169
AGGTTTTC	0.131
AGCCTAGG	-0.333
AATTCGGT	0.201
ACCTTAAA	-0.144
GGCATCAC	0.227
GGTATCAC	-0.131

Sequence	PBM E-score
ACTTAATC	-0.0224
ACGATTGC	0.241
GTCACCTA	0.289
GTCAGTCA	0.0935
CTGTATAC	-0.00687
CGTCCCCA	-0.229
GGATTTGA	-0.0111
CTCTGCAC	-0.161
AAAGCACT	-0.0296
AATACGCC	0.104
CCGCTATC	-0.0787
AAAGCGAC	-0.114
ATAAAAAG	0.307
GGGAATAA	0.0818
CCATCGCC	-0.209
CACGGTGC	-0.0177
ACGGGGGA	-0.113
ACGACCCG	-0.172
CCTATACA	0.0777
